Results published in PubChem BioAssay AID485344 (National Center for Advancing Translational Sciences (NCATS), 2010).
About 6,900 (2%) of roughly 340,000 compounds were called active. Rule as the data show it: active = inhibition above about 30%; inactive = below that, where a call was filed. This is a selection; strong and weak results do not stand in their true shares. The source gives no active or inactive call for entries shown without one.

These compounds were tested against D(2) dopamine receptor (Homo sapiens) (UniProt P14416) (assay: HTS Assay for Allosteric Antagonists of the Human D2 Dopamine Receptor: Primary Screen for Antagonists). Settings: HEK293 TREx D2 cells, calcium flux, dopamine EC80; at 10 µM; stronger effect = higher value.
Sequence of UniProt P14416 (P14416 whole entry, looked up): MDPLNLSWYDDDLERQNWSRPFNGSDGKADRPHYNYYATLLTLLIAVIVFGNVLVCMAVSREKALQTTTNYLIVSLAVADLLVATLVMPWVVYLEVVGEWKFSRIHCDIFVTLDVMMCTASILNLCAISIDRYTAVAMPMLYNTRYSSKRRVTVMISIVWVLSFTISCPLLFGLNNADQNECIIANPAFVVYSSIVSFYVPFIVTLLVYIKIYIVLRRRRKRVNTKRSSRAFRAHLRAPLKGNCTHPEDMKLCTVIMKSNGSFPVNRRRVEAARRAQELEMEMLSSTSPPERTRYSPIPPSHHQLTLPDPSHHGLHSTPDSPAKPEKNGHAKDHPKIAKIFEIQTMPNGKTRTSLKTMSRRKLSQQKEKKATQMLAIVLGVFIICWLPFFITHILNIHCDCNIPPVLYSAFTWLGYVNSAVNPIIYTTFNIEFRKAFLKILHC
Procedure, shortened: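 Overnight-induced (tetracycline, 30 C) HEK293 T-REx cells carrying force-coupled D2 receive a no-wash calcium dye, then compound, then EC80 dopamine at 180 s; signals are read kinetically throughout.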
Also: 0% is about no effect.

| SMILES | inhibition |
| --- | --- |
| COc1cccc(N2CCN(C(=O)c3ccc4c(=O)n(CCc5ccccc5)c(=O)[nH]c4c3)CC2)c1 | -7.65% |
| COc1ccc(NC(=O)CSc2cn(CC(=O)N3CCOCC3)c3ccccc23)cc1OC | 15.2% |
| CCOC(=O)c1c(C)n(C)c2ccc(OC)c(NC(=O)CCN3CCC(Cc4ccccc4)CC3)c12 | active: 90.8% |
| COc1ccccc1CNS(=O)(=O)c1cc(C(=O)Nc2cccc(C(F)(F)F)c2)ccc1F | -23.4% |
| CC(C)COC(=O)/C(C#N)=C\c1ccc(-c2ccccc2Cl)o1 | 0.0321% |
| COc1cccc(OC)c1OCCCCN1CCC(Cc2ccccc2)CC1 | active: 76.3% |
| Cc1ccc2c(c1)N(CCC(=O)NCc1ccc(F)cc1)C(=O)CO2 | -15.3% |
| CCOCCc1nn2c(=O)cc(COC(=O)CNC(=O)c3ccc(C(C)(C)C)cc3)nc2s1 | 4.47% |
| COc1cc(NC(=O)CCc2c(C)nn(-c3ccc4nncn4n3)c2C)cc(OC)c1OC | -23.2% |
| Cc1ccc(Cl)cc1N1CCN(S(=O)(=O)c2ccc3[nH]c4c(c3c2)CCCCC4)CC1 | -5.14% |
| Fc1ccc(-n2ncc3c(NCCCN4CCOCC4)ncnc32)cc1 | -9.73% |
| CCOC(=O)c1c(NC(=O)CSc2cn(CCNC(=O)c3ccccc3F)c3ccccc23)sc2c1CCC2 | 7.96% |
| COc1cc(-c2nnc(SCCOc3ccc(Cl)cc3C)o2)cc(OC)c1OC | 1.1% |
| COC(=O)c1cc(S(=O)(=O)NCC2CCN(Cc3ccc(F)cc3)CC2)cn1C | -8.53% |
| CCCSc1ncc(Cl)c(C(=O)Nc2ccc(S(=O)(=O)Nc3ncccn3)cc2)n1 | -21% |
| COc1ccc(NC(=O)CSc2ncc3c(n2)-c2cc(Cl)ccc2N(Cc2ccccc2F)S3(=O)=O)cc1 | 10.3% |
| Cc1cc(C)c2c(=O)cc(C(=O)Nc3sc4c(c3C(=O)NCc3ccccc3)CCCC4)oc2c1 | -7.12% |
| COc1cc(Br)c(CCNC(=O)c2ccco2)cc1OC | active: 36.5% |
| Cc1cccc(CSc2ncc(CO)n2Cc2ccc(F)cc2)c1 | 4.01% |
| O=C(Nc1ccc2oc(-c3ccccc3F)nc2c1)c1ccccc1Cl | -12.5% |
| O=C(Nc1ccc(Cl)cc1)c1nc[nH]c1C(=O)N1CCc2ccccc2C1 | active: 50.9% |
| COc1cccc2c1OC1(C)CC2/C(=C(\C)O)C(=O)N1 (stereo not given) | active: 51.3% |
| Cc1ccc2c(c1)-c1nc(-c3ccc(Cl)cc3)cc(-c3coc4ccccc4c3=O)c1CO2 | 10.7% |
| CCN(C(=O)COC(=O)CCc1ccc(OC)cc1)c1c(N)n(Cc2ccccc2)c(=O)[nH]c1=O | active: 33.8% |

| SMILES | inhibition |
| --- | --- |
| CN1CCN(C(CNC(=O)c2cccc(F)c2)c2ccc3c(c2)OCO3)CC1 (stereo not given) | -6.15% |
| CCOc1ccc(-n2c(Cc3ccccc3)nnc2SCc2nc(-c3ccccc3OC)no2)cc1 | 11.1% |
| Cc1cc(C)c(NC(=O)C2CCN(c3nc4ccccc4[nH]3)CC2)c(C)c1 | -22.5% |
| C=CCNCCCCOc1ccccc1-c1ccccc1 | active: 49.2% |
| CC(C)CCNC(=O)CCCN1C(=O)c2ccccc2Sc2ncccc21 | 2.32% |
| COc1cc(-c2noc(CN3CCN(c4ccccc4)CC3)n2)cc(OC)c1OC | -14.2% |
| COc1ccccc1-c1nc2c(c(SCc3cccc(Cl)c3)n1)Cc1c(CO)cnc(C)c1O2 | -17.9% |
| CCOC(=O)c1ccccc1NC(=O)N1CCc2c(sc(C)c2CC)C1c1ccccc1 (stereo not given) | 4.81% |
| Cc1cccc(NC(=O)C(=O)NCC(c2ccc3c(c2)OCO3)N2CCOCC2)c1C (stereo not given) | 10.4% |
| CCc1ccc(C2c3c(-c4ccccc4O)n[nH]c3C(=O)N2Cc2ccncc2)cc1 (stereo not given) | -4.37% |
| COc1cc(OC)cc(C(=O)Oc2c(Sc3ccccc3)c(C)nn2C(C)(C)C)c1 | -3.61% |
| Cc1cn2c(=O)cc(COC(=O)c3cccc(NC(=O)COc4ccccc4Cl)c3)nc2s1 | -21.7% |
| CCc1ccc(CNC(=O)c2sc3ncccc3c2-n2c(C)ccc2C)cc1 | -1.5% |
| Cc1ccc(-c2nc3cc(C(C)C)ccc3o2)cc1NC(=O)c1cc2ccccc2o1 | 0.308% |
| O=C(Cn1ccn(-c2ccc(F)c(F)c2)c(=O)c1=O)Nc1ccccc1F | -0.585% |
| CCOc1ccccc1CNS(=O)(=O)c1ccc2c(c1)CCCN2C(C)=O | -1.19% |
| Cc1ccc(OCC(=O)Nc2ccc(S(=O)(=O)Nc3cc(C)nc(C)n3)cc2)c(Br)c1 | 18.9% |
| Cc1ccc(C)n1-c1nnc(N2CCCC(C(=O)NCc3ccc(Cl)cc3)C2)s1 (stereo not given) | -3.24% |
| COc1ccc(C2=CC(c3ccc(F)cc3)n3ncc(C(=O)Nc4ccc(C)cc4)c3N2)cc1 (stereo not given) | -9.63% |
| Cc1ccc(CN2CCc3nc(N4CCN(c5ncccn5)CC4)ncc3C2)cc1 | -9.21% |
| COc1cccc(NC(=O)CSc2nc3c(oc4ccccc43)c(=O)n2Cc2ccco2)c1 | 15.4% |
| Cc1ccccc1CN1CCN(C(=O)c2ccco2)CC1 | active: 69.7% |
| O=C(CCSc1nc(-c2ccco2)cc(C(F)(F)F)n1)Nc1cccc(O)c1 | 26.2% |
| Cc1cccc(NC(=O)NC(C)C(c2cccs2)N2CCOCC2)c1 (stereo not given) | active: 30.3% |

| SMILES | inhibition |
| --- | --- |
| Cc1ccc(N(CC(=O)NCCc2ccc(Cl)cc2)S(=O)(=O)N(C)C)cc1 | -0.662% |
| CCc1ccc(NC(=O)CN2CCN(Cc3ccccc3)S2(=O)=O)cc1 | -28% |
| Cc1oc2c(c(C)cc3oc(=O)c(CC(=O)NCCc4ccccc4F)c(C)c32)c1C | 7.4% |
| CCOC(=O)C1CCN(c2ncnc3c2c(-c2ccccc2)cn3-c2cccc(C)c2)CC1 | 5.8% |
| Cc1ccc(Cn2c(C(=O)O)c(CNCc3ccccc3Cl)c3ccc(C)cc32)cc1 | -15.4% |
| O=[N+]([O-])c1ccccc1OCCCNCc1ccccc1 | active: 37.6% |
| Cc1ccccc1-n1c(SCC(=O)Nc2ccc(Cl)cc2F)nnc1-c1cc2occc2n1C | -1.12% |
| Cc1cccc(NC(=O)CCCn2c(C)c3cnn(-c4ccccc4)c(=O)c3c2C)c1C | -1.64% |
| Cc1nc(-c2ccc(Cl)cc2)sc1CCNC(=O)C(=O)Nc1ccc(F)cc1F | -14.6% |
| O=C(CCc1nc2ccccc2c(=O)[nH]1)Nc1ccc(Cl)c(Cl)c1 | active: 54.3% |
| O=C(O)c1cc(NC2(c3ccccc3)C(=O)c3ccccc3C2=O)ccc1Cl | -1.63% |
| O=C(Cn1c(=O)oc2cc(S(=O)(=O)N3CCCCC3)ccc21)Nc1cccc(Cl)c1 | 10.1% |
| Cc1ccccc1NC(=O)c1ccc(F)c(S(=O)(=O)N(C)Cc2ccccc2)c1 | 15% |
| CCc1ccc(NC(=O)c2cc(C(C)=O)n3ccccc23)cc1 | 12.2% |
| CC(C)c1ccc(C2N3CC4(C)CN2CC(c2ccccc2)(C3)C4=O)cc1 (stereo not given) | 17.2% |
| CCCc1nn2c(=O)cc(COC(=O)c3cccc(NC(=O)COc4ccc(F)cc4)c3)nc2s1 | 1.92% |
| Clc1cccc(N2CCN(c3ncnc4c3nc3n4CCCCC3)CC2)c1 | -2.46% |
| CCOC(=O)c1scc(-c2ccccc2)c1S(=O)(=O)Nc1ccccc1F | 22.9% |
| CCc1nn(-c2ccccc2)c2nc(-c3ccccc3OC)c3cc(OC)c(OC)cc3c12 | 16.5% |
| Oc1cc2c(cc1CN1CCN(c3cccc(C(F)(F)F)c3)CC1)CCC2 | active: 56.4% |
| CCOc1ccc(CCNC(=O)CCc2c(C)nc3c4c(C)cc(C)nc4nn3c2C)cc1 | 9.93% |
| Cc1cccc(C(=O)Nc2sc3c(c2C(=O)NCc2ccco2)CCCC3)c1 | 18.4% |
| COc1cccc(NC(=O)NCc2ccc3c(c2)CCN3C(=O)c2ccccc2)c1 | -1.35% |
| CCCN1C(=O)c2[nH]nc(-c3ccccc3O)c2C1c1ccc(OCc2ccccc2)c(OCC)c1 (stereo not given) | 10.5% |

| SMILES | inhibition |
| --- | --- |
| COc1ccc(C)c2sc(N(Cc3cccnc3)C(C)=O)nc12 | 4.51% |
| Cc1ccc(Cl)cc1NC(=O)CN1C(=O)c2cccc3cccc1c23 | 0.226% |
| CCc1ccc(NC(=O)C2CCC(CNS(=O)(=O)c3ccc4c(c3)CC(C)N4C(C)=O)CC2)cc1 (stereo not given) | 11.6% |
| COc1ccccc1OCCn1c(NC(=O)c2ccc(Cl)cc2)nc2ccccc21 | -5.39% |
| COc1ccc(-c2nc3ccccc3s2)cc1NC(=O)COc1ccccc1C | 19.2% |
| COc1ccc(CCNC(=O)c2ccc(Cn3c(=O)c4ccccc4n(Cc4cc(C)ccc4C)c3=O)cc2)cc1OC | 4.36% |
| Cc1ccc2oc(=O)c3cc(C(=O)Nc4ccc(F)cc4F)sc3c2c1 | 13.9% |
| Cc1cc(C)c2nc(N3CCCC(C(=O)NCc4cccc(Br)c4)C3)sc2c1 (stereo not given) | -0.966% |
| Fc1ccc(Nc2nc3ccccc3c3nncn23)c(Cl)c1 | -5.19% |
| CCOc1ccccc1N1CCN(C(=O)c2cc3c(s2)CCC3)CC1 | active: 35.3% |
| CCOC(=O)c1ccc(N2CCN(c3ccccc3F)CC2)c(NC(=O)Nc2ccc(Cl)c(Cl)c2)c1 | -14.4% |
| Cc1ccc(NC(=O)c2oc3ccc(S(=O)(=O)N4CCCCCC4)cc3c2C)cc1Cl | 2.47% |
| CC(C)CSc1nnc(-c2ccccc2)c(-c2ccccc2)n1 | 3.27% |
| Fc1cccc(Cc2noc(CN3CCC(c4ccncc4)CC3)n2)c1 | active: 52.6% |
| CC(C)Oc1ccc(C(=O)Nc2ccc3c(c2)CCCN3C(=O)c2cccs2)cc1 | -5.2% |
| CCC1CCCCN1CCCNC(=O)CN1C(=O)c2cccnc2Oc2ccc(Cl)cc21 (stereo not given) | 11.5% |
| COc1ccc(Cn2c(CNC(=O)c3ccc(N(C)C)cc3)nc3cccnc32)cc1 | -10.3% |
| O=C(Cn1cc(SCc2ccc(C(F)(F)F)cc2)c2ccccc21)N1CCCCCC1 | -18.3% |
| Cc1nnc(NC(=O)CSc2nc3c([nH]c4ccccc43)c(=O)n2-c2ccccc2)s1 | 6.34% |
| O=C(Nc1c(C(=O)N2CCN(c3ccc(F)cc3)CC2)oc2ccccc12)c1c(F)cccc1F | -0.779% |
| Cc1cccc(N2CCN(CCCNC(=O)C3CCCN(c4ncnc5c4nc4n5CCCCC4)C3)CC2C)c1 (stereo not given) | active: 55.7% |
| COc1ccc(C2CC(=O)c3cc(-c4nc(-c5cccc([N+](=O)[O-])c5)cs4)c(=O)n(-c4ccc(C)c(C)c4)c3C2)cc1 (stereo not given) | -16.5% |
| Cc1nn(C(C)C(=O)NC2CCCCC2)c(=O)c2c1sc1ccccc12 (stereo not given) | 20.5% |
